# Publication PMC4336329 (PLoS ONE, 2015)
# Among all 310,000 compounds or so, about 14,000 (4.5%) showed an effect of 50% or more. Effects have a minus sign here. This is one part of the list.
# Target: human ether-à-go-go-related gene (hERG) potassium channel (human, UniProt Q12809)
# Assay: primary screen, population patch clamp on CHO cells stably expressing hERG
# 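Note: peak tail current of the secondary pulse compared with the same well before compound.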
# Chain of human ether-à-go-go-related gene (hERG) potassium channel (Q12809 whole entry, looked up): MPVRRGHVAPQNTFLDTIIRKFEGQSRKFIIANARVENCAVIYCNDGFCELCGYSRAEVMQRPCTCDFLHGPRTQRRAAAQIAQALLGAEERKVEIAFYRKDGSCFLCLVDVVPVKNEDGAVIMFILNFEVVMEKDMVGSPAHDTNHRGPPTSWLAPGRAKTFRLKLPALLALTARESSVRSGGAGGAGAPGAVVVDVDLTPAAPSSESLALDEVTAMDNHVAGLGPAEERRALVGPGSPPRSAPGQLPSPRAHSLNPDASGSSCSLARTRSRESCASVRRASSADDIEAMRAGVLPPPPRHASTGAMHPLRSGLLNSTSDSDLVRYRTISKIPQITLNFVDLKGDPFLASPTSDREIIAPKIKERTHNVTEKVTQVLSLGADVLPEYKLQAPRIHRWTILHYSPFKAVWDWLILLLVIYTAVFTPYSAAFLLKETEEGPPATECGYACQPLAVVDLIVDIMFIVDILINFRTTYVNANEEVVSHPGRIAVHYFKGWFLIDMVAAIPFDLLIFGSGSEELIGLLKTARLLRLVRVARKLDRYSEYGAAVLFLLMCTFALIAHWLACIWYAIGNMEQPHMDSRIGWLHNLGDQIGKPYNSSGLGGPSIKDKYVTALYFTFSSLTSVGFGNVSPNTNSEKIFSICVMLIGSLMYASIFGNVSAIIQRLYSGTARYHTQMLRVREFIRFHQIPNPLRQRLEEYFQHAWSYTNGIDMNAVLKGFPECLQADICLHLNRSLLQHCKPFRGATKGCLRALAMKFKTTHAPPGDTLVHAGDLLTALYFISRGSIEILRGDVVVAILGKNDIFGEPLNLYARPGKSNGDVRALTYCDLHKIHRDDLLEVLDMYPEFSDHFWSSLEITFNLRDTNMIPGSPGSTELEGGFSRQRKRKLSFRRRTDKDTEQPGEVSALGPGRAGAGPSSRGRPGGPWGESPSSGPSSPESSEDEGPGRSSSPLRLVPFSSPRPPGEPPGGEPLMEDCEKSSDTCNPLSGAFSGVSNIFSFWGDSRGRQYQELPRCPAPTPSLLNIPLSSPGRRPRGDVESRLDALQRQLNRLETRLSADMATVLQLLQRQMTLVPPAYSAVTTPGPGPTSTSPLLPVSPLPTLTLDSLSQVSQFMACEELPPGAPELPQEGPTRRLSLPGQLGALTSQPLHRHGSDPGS
row,SMILES,"hERG current change (%, negative = inhibition) at 10uM"
1,CC(C)Cc1c(O)nc(SCC(=O)Nc2ccc3c(c2)CCC3)[nH]c1=O,0.715%
2,CCC(=O)N1c2ccc(S(=O)(=O)NCCc3ccc(OC)c(OC)c3)cc2CC1C (stereo not drawn),10.3%
3,C[C@@]12C(=O)N(c3ccc(C(F)(F)F)cc3)C(=O)N1[C@@H]1c3ccccc3OC[C@@H]1[C@H]2c1ccccc1,20%
4,Cn1c(=O)c2c(nc(CN3CCC(C(N)=O)CC3)n2CCCc2ccccc2)n(C)c1=O,-12.6%
5,CCC(=O)c1ccccc1OCC(=O)Nc1c(C)cccc1C,-5.87%
6,CCOc1cc(/C=N/NC(=O)Nc2ccccc2)ccc1O,-14.2%
7,CCn1c(SCC(=O)c2ccc(O)c(O)c2)nnc1-c1ccccc1,-13.3%
8,CCn1cc(CCC(=O)NCCN2CCOCC2)c2ccccc21,14.4%
9,CCOc1cc(C=O)ccc1OCc1cc(=O)n2cc(C)ccc2n1,7.13%
10,NS(=O)(=O)c1ccc(CCNC(=O)COc2ccc3c4c(c(=O)oc3c2)CCC4)cc1,9.18%
11,Cc1cccc(-c2nnc3n2N=C(c2ccccc2)CS3)c1,15.2%
12,O=C(NCc1ccco1)C(c1ccco1)N(CCc1ccccc1)C(=O)Cn1nnc2ccccc21 (stereo not drawn),-4.92%
13,COc1cccc(/C=C2\SC(=O)N(CCC(=O)NCCCn3ccnc3)C2=O)c1,-31.4%
14,CCN(CC)CCOC(=O)c1cccc(OC)c1.Cl,-15.1%
15,CCOC(=O)[C@H]1[C@H]2COc3cc(OC)ccc3[C@@H]2N2C(=O)c3ccc(C)cc3NC(=O)[C@@]12C,-9.55%
16,CC(NC(=O)c1ccccc1F)C12CC3CC(CC(C3)C1)C2 (stereo not drawn),-13.5%
17,CCc1ccc(C(C(=O)NC2CCCCC2)N(C(=O)c2csnn2)C2CC2)cc1 (stereo not drawn),12.4%
18,O=C(Cn1cnc2ccccc21)N/N=C/c1ccccn1,6.67%
19,COc1ccc(N2CCN(c3ccc(NC(=O)/C=C\C(=O)O)cc3)CC2)cc1,9.65%
20,Cc1nc(CSc2n[nH]c(=O)n2-c2cccc(F)c2)cs1,17.4%
21,CCCCNC(=O)c1onc(CSc2ccc(C(C)C)cc2)c1C(=O)O,0.532%
22,COc1ccc(NC(=O)c2ccccc2[N+](=O)[O-])cc1OC,-1.55%
23,CCc1ccc(-n2nc3cc(C)c(N)cc3n2)cc1,13%

row,SMILES,"hERG current change (%, negative = inhibition) at 10uM"
1,O=C(/C=C/c1ccccc1Cl)c1ccc[nH]1,17.1%
2,COc1c(-c2ccc(O)cc2)oc2cc(O)cc(O)c2c1=O,-12.2%
3,c1ccn2c(SCc3ccc4c(c3)OCCO4)nnc2c1,-23.9%
4,COc1cc2cc(NC(C)=O)cc(NCc3ccccc3)c2cc1OC,10.9%
5,CCCn1nnc(NC(=O)c2cc(Br)cc(Br)c2OC)n1,-29%
6,O=S(NCc1ccco1)C12CC3CC(CC(C3)C1)C2 (stereo not drawn),11.2%
7,COc1cccc(CNn2cnnc2)c1OCc1ccc(F)cc1,8.12%
8,C=CCNC(=O)/C(C#N)=C/c1ccc(SC)cc1,-15.3%
9,Cc1nc2ccccn2c1C(=O)OCC#N,20.1%
10,Cc1cc(S(=O)(=O)N2CCOCC2)ccc1OCC(=O)NCc1ccccn1,-12.5%
11,Cc1cc(F)c(F)cc1C(=O)N1CCCC1,13.2%
12,Fc1cccc(Cl)c1Cn1nnc(-c2ccc(N3CCOCC3)cc2)n1,8.99%
13,Cc1ccc(NC(=O)CSCC(=O)N2CCN(C(=O)c3ccco3)CC2)cc1,-21.6%
14,CCCC(=O)Nc1nc(C)c(-c2csc(Nc3cc(OC)ccc3OC)n2)s1,5.5%
15,CCCC[C@H](CN(N=O)[C@@H](Cc1ccccc1)CN(C)N=O)N(CCc1ccccc1)N=O.[Na+],-3.27%
16,CCCOc1ccc(C(=O)NNC(=S)NC(=O)c2ccccc2[N+](=O)[O-])cc1,15.2%
17,Clc1ccc(-c2nnc(-c3ccco3)nc2N2CCCCC2)cc1,-37.5%
18,CCOC(=O)C(C(=O)Nc1ccccc1)C1CCCCC1 (stereo not drawn),-1.53%
19,COC(=O)C1=C(C)N(Cc2ccccc2)C(=S)N[C@H]1c1ccccc1,-2.64%
20,Nc1cc(=O)[nH]c(SCC(=O)Nc2cccc(Cl)c2)n1,1.17%
21,Cc1ccc(S(=O)(=O)N(C)C)cc1NC(=O)COC(=O)c1n[nH]c(=O)c2ccccc12,-49.8%
22,CN(C)S(=O)(=O)c1ccc(C(=O)OCC(=O)c2ccc(OC(F)F)cc2OC(F)F)cc1,-3.97%
